{"source": "PubChem BioAssay AID1671194", "about": "(National Center for Advancing Translational Sciences (NCATS), 2021)", "note": "The campaign covered roughly 140,000 compounds. About 240 (0.17%) were called active. This list was built around the results that the source calls inconclusive (neither active nor inactive); the mix of calls is not that of the screen. Calls follow the shape of the dose curve; as a rule, active = well fitted inhibition curve with a large enough effect; inconclusive = small, poorly fitted or top-dose-only effect; inactive = no such curve, though single readings can be large or run the other way. A potency beside an inconclusive call is a rough fit, not a confirmed value. Potency is read from the fitted curve at half-maximal effect; tags tell the direction and shape of the fitted curve."}
{"experiment": "Primary qHTS assay for inhibitors of alpha-synuclein gene (SNCA) expression; also: nearly all actives have a fitted effect of over 45% in size;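 as to activity change, negative = inhibition: plate controls were DMSO cells for no effect and cell-free wells for full effect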", "conditions": "HEK-293 SNCA-luciferase knock-in, luminescence, 24 h; activity change, negative = inhibition: at 57.2 µM (top of the series) unless noted"}
{"smiles": "CCOc1ccc(C(=O)N2CCC3(CC2)C(=O)N(C)c2ccccc23)cc1OCC", "Potency": "inconclusive: 1.41 µM [inhibitor, partial curve, poor fit]"}
{"smiles": "O=C(NC1CCCC1)N1CCN(c2nc3ncccc3o2)CC1", "activity change, negative = inhibition": "inactive: -10.2% [at 87.6 µM]"}
{"smiles": "COc1ccccc1CNC(=O)C1CCCN1c1nccc(Nc2ccccc2F)n1", "note": "(stereo unspecified)", "Potency": "inconclusive: 14.1 µM [inhibitor, partial curve]"}
{"smiles": "O=C(Nc1c(-c2ccccc2)nc2ccccn12)c1ccc(Br)cc1", "Potency": "inconclusive: 39.8 µM [inhibitor, single point]"}
{"smiles": "O=C(Cc1ccccn1)NC1CCCN(Cc2ccc(-c3cncnc3)cc2)C1", "note": "(stereo unspecified)", "activity change, negative = inhibition": "inactive: -10.9%"}
{"smiles": "CCOc1ccc(CCNC(=O)c2cnc3sc(N4CCOCC4)nn3c2=O)cc1", "Potency": "inconclusive: 2.24 µM [inhibitor, partial curve, poor fit]"}
{"smiles": "COc1ccccc1C(=O)N1CCc2nnc([C@@H]3C[C@@H](O)CN3C(C)C)n2CC1", "activity change, negative = inhibition": "inactive: -6.94%"}
{"smiles": "CCOc1ccc(C(=O)Nc2ccc(S(=O)(=O)N3CCCCC3c3cccnc3)cc2)cc1", "note": "(stereo unspecified)", "Potency": "inconclusive: 22.4 µM [inhibitor, single point]"}
{"smiles": "COCCN1C(=O)c2ccccc2C(C(=O)NCc2ccco2)C12CCCCC2", "note": "(stereo unspecified)", "Potency": "inconclusive: 44.7 µM [inhibitor, single point]"}
{"smiles": "O=C(O)CCn1ncc2cc(OCC3CCN(C(=O)c4cc(F)ccc4Cl)CC3)ccc21", "activity change, negative = inhibition": "inactive: 5.2%"}
{"smiles": "COc1ccc(C2NC(=O)c3c(sc4c3CCN(C)C4)N2)cc1O", "note": "(stereo unspecified)", "Potency": "inconclusive: 17.8 µM [inhibitor, single point]"}
{"smiles": "Cc1ccc(-c2cn(C3CCN(C(=O)c4ccc(Cl)cc4)CC3)c(=O)[nH]2)cc1", "Potency": "inconclusive: 1.58 µM [inhibitor, full curve]"}
{"smiles": "CCc1ccc(NC(=O)C(CC)n2nnc(C(=O)OC)c2C(=O)OC)cc1", "note": "(stereo unspecified)", "Potency": "inconclusive: 39.8 µM [inhibitor, single point]"}
{"smiles": "Cc1ccc(Cl)cc1N1CCN(S(=O)(=O)c2ccc3[nH]c4c(c3c2)CCCC4)CC1", "Potency": "inconclusive: 15.8 µM [inhibitor, partial curve, poor fit]"}
{"smiles": "O=C(NCCc1ccccc1)C1c2ccccc2C(=O)N(Cc2ccccc2)C12CCCC2", "note": "(stereo unspecified)", "Potency": "inconclusive: 8.91 µM [inhibitor, full curve, poor fit]"}
{"smiles": "Cc1noc(C)c1C(=O)N1CC[C@H](N2CCN(C)CC2)[C@H](CCC(=O)O)C1", "activity change, negative = inhibition": "inactive: 3.9%"}
{"smiles": "O=C(Nc1cccc(C(F)(F)F)c1)N[C@H]1CO[C@H]2[C@@H]1OC[C@H]2OC(=O)Nc1ccccc1", "Potency": "inconclusive: 39.8 µM [inhibitor, single point]"}
{"smiles": "O=C(c1cncc(N2CCCC(CCc3cccc(F)c3)C2)n1)N1CCCCC1", "note": "(stereo unspecified)", "Potency": "inconclusive: 5.62 µM [inhibitor, partial curve]"}
{"smiles": "CC[C@@H]1[C@@H](NC(=O)Cc2csc(C(C)=O)c2)[C@@H]2CCO[C@H]12", "Potency": "inconclusive: 1.26 µM [inhibitor, full curve, poor fit]"}
{"smiles": "Cn1cnc2c1c(=O)[nH]c(=O)n2C", "Potency": "inconclusive: 34.1 µM [inhibitor, single point]"}
{"smiles": "O=C(c1cc(F)ccc1F)N1CCC(Cc2nc(-c3ccc(F)cc3)no2)CC1", "Potency": "inconclusive: 35.5 µM [inhibitor, single point]"}
{"smiles": "CC(C)C[C@@H]1N[C@H](C(=O)NC(C)C)Cc2cn(Cc3ccccn3)c3cccc1c23", "Potency": "inconclusive: 56.2 µM [inhibitor, single point]"}
{"smiles": "Cc1ccc(C#N)c(N2CCCC(c3nccn3CC3CCC3)C2)n1", "note": "(stereo unspecified)", "Potency": "inconclusive: 7.94 µM [inhibitor, partial curve]"}
{"smiles": "Cn1nc(C2CCCN(C(=O)NCc3ccccc3)C2)n(C2CCCC2)c1=O", "note": "(stereo unspecified)", "activity change, negative = inhibition": "inactive: 4.2%"}
{"smiles": "O=C1c2c(-c3nc(-c4ccsc4)no3)nnn2CCN1Cc1cc(F)cc(F)c1", "activity change, negative = inhibition": "inactive: 12.2%"}
{"smiles": "COc1ccc(-c2nnc3ccc(NCCc4ccccn4)nn23)nc1", "activity change, negative = inhibition": "inactive: -0.404% [at 87.6 µM]"}
{"smiles": "O=C1[C@@H]2C[C@@H](CN2Cc2ccc(Cl)cc2)Oc2ccccc2N1CC1CC1", "Potency": "inconclusive: 35.5 µM [inhibitor, partial curve, poor fit]"}
{"smiles": "CCNC(=O)N1CCCCCC1c1nc(C2CC2)no1", "note": "(stereo unspecified)", "activity change, negative = inhibition": "inactive: -29.6%"}
{"smiles": "CN(Cc1ccccc1C(F)(F)F)C(=O)Cc1cccc(Cl)c1", "activity change, negative = inhibition": "inactive: -23.2% [at 87.6 µM]"}
{"smiles": "N#Cc1cccc(CN[C@@H]2CO[C@H](CNC(=O)C3CC3)[C@H]2O)c1", "Potency": "inconclusive: 31.6 µM [inhibitor, single point]"}
{"smiles": "O=C(Nc1ccc2oc(-c3cccnc3)nc2c1)c1ccc(-c2ccccc2)o1", "Potency": "inconclusive: 14.1 µM [inhibitor, single point]"}
{"smiles": "Cc1cc(C)cc(-c2ccc(CN3CCCC(NC(=O)c4ccncc4)C3)cc2)c1", "note": "(stereo unspecified)", "Potency": "inconclusive: 39.8 µM [inhibitor, single point]"}
{"smiles": "O=c1cc(N2CCOCC2)oc2c(N3CCOCC3)nccc12", "activity change, negative = inhibition": "inactive: 30% [at 87.6 µM]"}
{"smiles": "CCC1CCCCN1C(=O)CSc1nc2c([nH]c3ccccc32)c(=O)n1-c1cccc(OC)c1", "note": "(stereo unspecified)", "Potency": "inconclusive: 39.8 µM [inhibitor, single point]"}
{"smiles": "COc1cc(C(=O)N2CCN(c3ccc(Nc4ccccc4)nn3)CC2)cc(OC)c1OC", "Potency": "inconclusive: 39.8 µM [inhibitor, single point]"}
{"smiles": "CC(C=CC1=C(C)CCCC1(C)C)=CC=CC(C)=CC(=O)Nc1ccc(O)cc1", "Potency": "inconclusive: 35 µM [inhibitor, partial curve, poor fit]"}
{"smiles": "O=C([C@@H]1C[C@H](c2ccc(F)cc2)N(Cc2ccccc2Cl)C1)N1CCN(CCO)CC1", "activity change, negative = inhibition": "inactive: -17%"}
{"smiles": "C=CCNC(=O)N1CCOC(CN(CC(C)C)C(=O)c2ccccc2)C1", "note": "(stereo unspecified)", "activity change, negative = inhibition": "inactive: -11.1%"}
{"smiles": "O=C(C[C@@H]1C[C@H]2O[C@H](CNC3CCNCC3)[C@@H](O)[C@H]2O1)N1CCOCC1", "activity change, negative = inhibition": "inactive: -3.85%"}
{"smiles": "Cc1ccoc1C(=O)N1CC[C@@H]2CN(S(C)(=O)=O)[C@@H]2C1", "Potency": "inconclusive: 39.8 µM [inhibitor, single point]"}
{"smiles": "O=C(NCc1cc(F)ccc1F)C1Cn2cccc2C(=O)N1Cc1ccccc1", "note": "(stereo unspecified)", "Potency": "inconclusive: 44.7 µM [inhibitor, single point]"}
{"smiles": "Cc1ccc(Cl)cc1N1CCN(c2cc(C3CC(O)C3)ncn2)CC1", "note": "(stereo unspecified)", "activity change, negative = inhibition": "inactive: -23.3%"}
{"smiles": "COc1cccc(C(=O)Nc2ccccc2-c2nc3ccccc3s2)c1", "Potency": "inconclusive: 5.01 µM [inhibitor, single point]"}
{"smiles": "CC(C)c1ccc(NC(=O)CN2C(=O)NC(c3ccccc3Cl)C3=C2COC3=O)cc1", "note": "(stereo unspecified)", "Potency": "inconclusive: 31.6 µM [inhibitor, partial curve, poor fit]"}
{"smiles": "CC1CCC2(CC1)N=C(c1ccccc1)C(=O)N2CC(=O)Nc1ccc(F)c(Cl)c1", "note": "(stereo unspecified)", "Potency": "inconclusive: 39.8 µM [inhibitor, single point]"}
{"smiles": "O=C(Cc1ccsc1)N1CCC2(CC1)CN(Cc1ccccc1)CC2CO", "note": "(stereo unspecified)", "Potency": "inconclusive: 39.8 µM [inhibitor, single point]"}
{"smiles": "CC1CCN(C(=O)Cn2ccn3nc(-c4ccccc4)c(CO)c3c2=O)CC1", "Potency": "inconclusive: 39.8 µM [inhibitor, single point]"}
{"smiles": "COCC(NC(=O)c1ccc2nc(C3CCCCC3)oc2c1)c1ccnn1C", "note": "(stereo unspecified)", "activity change, negative = inhibition": "inactive: 24.7%"}
{"smiles": "Cc1cccc(-n2c(C)nc3cc(C(=O)NC4CCCCCC4)ccc32)c1", "activity change, negative = inhibition": "inactive: 21.1%"}
{"smiles": "O=C(C1CCN([S+](=O)([O-])c2cccc(C(F)(F)F)c2)CC1)N1CCC(N2CCOCC2=O)CC1", "Potency": "inconclusive: 2.51 µM [inhibitor, full curve, poor fit]"}
{"smiles": "COc1ccccc1CNC(=O)CSc1ncc2c(n1)-c1cc(Cl)ccc1N(Cc1ccccc1)S2(=O)=O", "Potency": "inconclusive: 39.8 µM [inhibitor, single point]"}
{"smiles": "COc1cccc(CN2CCc3nc(C4CC4)nc(-c4ccc(O)cc4)c3C2)c1", "activity change, negative = inhibition": "inactive: -7.78%"}
{"smiles": "CCN1CCN(C(=O)c2ccc3nnc(-c4cccc(C(F)(F)F)c4)n3c2)CC1", "activity change, negative = inhibition": "inactive: 0.651%"}
{"smiles": "Cc1ccc(F)cc1S(=O)(=O)NC1CCN(c2ccc(=O)n(CC3CC3)n2)CC1", "Potency": "inconclusive: 39.8 µM [inhibitor, single point]"}
{"smiles": "CCc1ccc(Sc2cc(C(=O)NCCCOC(C)C)c3ccccc3n2)cc1", "Potency": "inconclusive: 12.6 µM [inhibitor, partial curve]"}
{"smiles": "CCOC(=O)C1CCN(C(=O)CC(c2ccc(Cl)cc2)c2cn(C)c3ccccc23)CC1", "note": "(stereo unspecified)", "Potency": "inconclusive: 39.8 µM [inhibitor, single point]"}
{"smiles": "Cc1ccc(-c2ccc3nnc(CNC(=O)Cc4ccccc4Cl)n3n2)cc1", "Potency": "inconclusive: 6.31 µM [inhibitor, partial curve]"}
{"smiles": "COCCc1noc(C2CCCN(C(=O)Cn3ncc4ccccc4c3=O)C2)n1", "note": "(stereo unspecified)", "activity change, negative = inhibition": "inactive: 13.7%"}
{"smiles": "O=C(Nc1ccc(Oc2ccccc2)cc1)O[C@@H]1CO[C@H]2[C@@H]1OC[C@@H]2NC(=O)c1cnccn1", "Potency": "inconclusive: 35.5 µM [inhibitor, partial curve, poor fit]"}
{"smiles": "COc1ccccc1-c1cccc(C(=O)N2CCN(C(=O)NC3CCCC3)CC2)c1", "activity change, negative = inhibition": "inactive: -0.0661%"}
{"smiles": "Cn1c(CN2CCOCC2)nnc1C1CCN(c2ncccc2C#N)CC1", "Potency": "inconclusive: 2.82 µM [inhibitor, partial curve, poor fit]"}
{"smiles": "CCOC(=O)C1CCN(C(=O)Cn2nc(C)n3c(cc4cc(C)ccc43)c2=O)CC1", "activity change, negative = inhibition": "inactive: -18.4%"}
{"smiles": "COc1cc(N2CCC(N(C)C)CC2)ccc1Nc1ncc(Cl)c(Nc2ccccc2P(C)(C)=O)n1", "Potency": "active: 8.55 µM"}
{"smiles": "CN(CC1CCOC1)C(=O)c1cccs1", "note": "(stereo unspecified)", "Potency": "inconclusive: 4.47 µM [inhibitor, single point]"}
{"smiles": "NC(=O)c1cnc2n1CCN(C(=O)CCNC(=O)c1ccc(F)cc1)C2", "Potency": "inconclusive: 39.8 µM [inhibitor, single point]"}
{"smiles": "CCc1ccc(NS(=O)(=O)c2ccc(C(=O)N(C)C)s2)cc1", "Potency": "inconclusive: 39.8 µM [inhibitor, single point]"}
